Laboratory results published in article PMC4336329 (PLoS ONE, 2015).
Hit rate of the full screen: of about 310,000 compounds, about 14,000 (4.5%) showed an effect of 50% or more. Effects have a minus sign here. The list shows a part of the results.

The compounds below were run against human ether-à-go-go-related gene (hERG) potassium channel (human, UniProt Q12809) (assay: primary screen, population patch clamp on CHO cells stably expressing hERG).
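Also: peak tail current of the secondary pulse compared with the same well before compound.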

human ether-à-go-go-related gene (hERG) potassium channel, sequence (Q12809 whole entry, looked up): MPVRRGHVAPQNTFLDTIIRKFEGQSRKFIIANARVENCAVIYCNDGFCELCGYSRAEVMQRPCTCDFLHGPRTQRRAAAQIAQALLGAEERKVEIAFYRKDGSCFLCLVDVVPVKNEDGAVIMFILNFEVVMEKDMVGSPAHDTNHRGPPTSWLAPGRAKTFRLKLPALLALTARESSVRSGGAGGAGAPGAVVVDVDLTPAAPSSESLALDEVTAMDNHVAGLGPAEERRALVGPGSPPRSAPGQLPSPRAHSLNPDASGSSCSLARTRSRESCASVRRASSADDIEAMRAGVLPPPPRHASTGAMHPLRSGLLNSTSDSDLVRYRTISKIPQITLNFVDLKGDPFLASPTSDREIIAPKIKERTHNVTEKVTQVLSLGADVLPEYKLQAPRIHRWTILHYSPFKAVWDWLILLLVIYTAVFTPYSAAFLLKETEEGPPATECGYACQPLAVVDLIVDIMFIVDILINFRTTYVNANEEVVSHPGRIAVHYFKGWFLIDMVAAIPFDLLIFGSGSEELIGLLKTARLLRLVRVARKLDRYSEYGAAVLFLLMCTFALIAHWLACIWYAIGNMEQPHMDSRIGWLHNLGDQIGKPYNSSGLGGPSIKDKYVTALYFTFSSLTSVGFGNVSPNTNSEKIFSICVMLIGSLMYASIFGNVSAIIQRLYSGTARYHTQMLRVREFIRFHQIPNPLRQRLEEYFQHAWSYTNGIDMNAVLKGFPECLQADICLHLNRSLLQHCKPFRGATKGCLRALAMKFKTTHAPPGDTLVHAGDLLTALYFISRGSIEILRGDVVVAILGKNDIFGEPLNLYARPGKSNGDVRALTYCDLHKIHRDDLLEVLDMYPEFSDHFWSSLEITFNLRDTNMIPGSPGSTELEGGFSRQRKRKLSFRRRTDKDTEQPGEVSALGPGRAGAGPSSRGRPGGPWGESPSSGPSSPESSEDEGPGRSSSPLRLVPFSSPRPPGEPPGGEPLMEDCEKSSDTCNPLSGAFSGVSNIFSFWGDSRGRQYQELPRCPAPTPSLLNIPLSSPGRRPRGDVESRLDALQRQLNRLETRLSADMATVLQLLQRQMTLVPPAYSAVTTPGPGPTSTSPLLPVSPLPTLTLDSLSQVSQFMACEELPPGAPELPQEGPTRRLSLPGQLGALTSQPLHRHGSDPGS

Row | Compound | hERG current change (%, negative = inhibition) at 10uM [%]
1 | CCCC1=C(C(=O)OCC)C(c2ccc(F)cc2)n2ncnc2N1 (centres unmarked) | -21.3
2 | CSc1ccccc1C(=O)Nc1cccc(C)c1 | 5.76
3 | O=C(OCC(=O)c1c[nH]c2ccccc12)c1cc2ccccc2cc1O | 1.38
4 | CC(C)(C)NC(=S)NNC(=O)c1cccc(Br)c1 | 17.4
5 | COC(=O)[C@H](Cc1ccccc1)NC(=O)NC(C)CCc1ccccc1 (some centres unmarked) | -2.12
6 | CC(C)C(c1nnnn1Cc1ccc(F)cc1)N1CCN(C2CCCCC2)CC1 (centres unmarked) | -61.3
7 | CC[N+](C)(CC)CCC(c1ccccc1)C1CCCCC1 (centres unmarked) | -3.49
8 | O=C(Nc1ccccc1N(C(=O)c1ccco1)S(=O)(=O)c1cccs1)c1ccco1 | 2.89
9 | O=C(c1ccc(=O)[nH]c1)N1CCCc2ccccc21 | 17.3
10 | NC(=O)c1ccccc1NC(=O)c1ccccc1Cl | 10.2
11 | CCN(CC)CCCCCCCCOC(=O)c1cc(OC)c(OC)c(OC)c1.Cl | -50.1
12 | Cc1cc(C(=O)NC2CCCC(C)C2C)c2ccccc2n1 (centres unmarked) | -5.11
13 | CCOc1cc(C=O)cc(Br)c1OCC(=O)NCCc1ccccc1 | -81.7
14 | COc1ccc(C2CC(c3ccccc3O)=NN2c2ccccc2)cc1 (centres unmarked) | 15.9
15 | COc1ccc(-n2nnnc2SCC(=O)N2CCOCC2)cc1 | 9.35
16 | Nc1c(Cl)ncnc1N1CCN(c2ncnc(Cl)c2N)CC1 | -13.7
17 | CCC1CCCCN1C(=O)c1ccc([N+](=O)[O-])o1 (centres unmarked) | 11.9
18 | Cc1c(C(=O)OCC(=O)NCc2ccco2)cccc1[N+](=O)[O-] | -10.9
19 | Cc1nc(C)n(CC(O)COc2ccc3c(c2)CCC3)n1 (centres unmarked) | -0.316
20 | Cc1cccc(NS(=O)(=O)Cc2ccccc2)n1 | 4.88
21 | Brc1ccccc1OCCOCCOc1cccc2cccnc12 | -18.3
22 | Cc1[nH]nc2c1C(C(C)c1ccccc1)C(C#N)=C(N)O2 (centres unmarked) | 2.3

Row | Compound | hERG current change (%, negative = inhibition) at 10uM [%]
23 | CC(C)(C)n1ncc2c(=O)n(CC(=O)NCCc3ccccc3)cnc21 | 1.39
24 | Cc1ccc(NC(=O)c2ccc(OC(=O)COc3cccc(Cl)c3)cc2)cc1 | 18
25 | Cc1ccc(C)n1-c1ncc(Br)cn1 | 6.58
26 | CSCC[C@H](NC(=O)NCc1ccc(F)cc1)C(=O)O | 0.717
27 | CCc1cc2c(N3CCN(C)CC3)ncnc2s1.Cl | -29
28 | CCOC(=O)N1CCN(C(c2ccccc2)c2sc3nc(C)nn3c2O)CC1 (centres unmarked) | -5.56
29 | CCOC(=O)c1sc(N(Cc2ccccc2)C(=O)COC(=O)c2ccc(O)cc2)nc1C | 17.7
30 | C/C=C\C=C/C(=O)Nc1cccc(C2=NOC3(C2)C[C@@H](C(N)=O)N(C(=O)c2ccccc2)C3)c1 (some centres unmarked) | 11.6
31 | O=S1(=O)CCC(NC(=S)N2CCOCC2)C1 (centres unmarked) | 7.65
32 | O=C(c1ccccc1)c1ccccc1N=Cc1c(O)[nH]c(=O)[nH]c1=O | 16.9
33 | C/C(CC(=O)N1CCN(C=O)CC1)=N\NC(=O)c1ccc(Br)cc1 | 9.05
34 | O=C(CC(=O)N/N=C/c1ccc(C(=O)O)cc1)NCCc1ccccc1 | 22.9
35 | COCCOc1nc2c(c(=O)n(C)c(=O)n2C)n1Cc1cccc(OC)c1 | -12.8
36 | CC(=O)Nc1ccc(NC(=O)Cn2cnc3c(cnn3C(C)(C)C)c2=O)cc1 | 9.43
37 | COc1cc(/C=C(\C#N)C(N)=O)ccc1OS(=O)(=O)c1ccc(C)cc1 | -37.8
38 | CC(C)NC(=O)COC(=O)/C=C/c1ccco1 | 30.8
39 | CCO[C@H]1OC(C(=O)NCc2nc3ccccc3[nH]2)=C[C@@H](c2cn(C(C)=O)c3ccccc23)[C@@H]1CCCO | -49.7
40 | Cc1nn(-c2ccc(F)cc2)c(-n2cccc2)c1C(=O)N1CCN(C(=O)c2ccco2)CC1 | -25.2
41 | O=C(c1ccco1)N1N=C(c2ccc(Cl)cc2)CC1c1ccco1 (centres unmarked) | 15
42 | COc1ccccc1-c1c(C)nn2c(NCCN3CCCC3)cc(C)nc12 | -5.5
43 | COc1cc(/C=N/NP(=S)(c2ccccc2)c2ccccc2)ccc1O | -6.45
44 | COc1cc(/C=C/C(=O)O)cc(S(=O)(=O)NCc2ccc3c(c2)OCO3)c1OC | 20.4

Row | Compound | hERG current change (%, negative = inhibition) at 10uM [%]
45 | Nc1ncc2[nH]cnc2n1 | 13.4
46 | CC(C)[C@H](NC(=O)N1CC(=O)Nc2ccccc21)C(=O)N[C@H](C(=O)O)c1ccccc1 | 12.5
47 | O=C(Nc1ccncc1)c1ccc(S(=O)(=O)Nc2ccccc2)cc1 | 1.96
48 | O=C(COc1ccc(F)cc1F)N1CCCCCCC1 | 13.5
49 | Cc1c(C(=O)NCCN2CCCC(O)C2)oc2c(F)cccc12 (centres unmarked) | -1.78
50 | CCN(Cc1nc(-c2ccc(OC)cc2)no1)C(=O)c1ccc2c(c1)OCO2 | -30.7
51 | Cc1cccc(C(=O)NCCC(=O)NCc2ccccc2Cl)c1 | -10.6
52 | O=C(CN1CCN(C(=O)C2CC2)CC1)Nc1cc(C(F)(F)F)cc(C(F)(F)F)c1 | -54.4
53 | CC(=O)O[C@@]12CO[C@@H]1C[C@H](OC1OCC(O)C(O)C1O)[C@@]1(C)C(=O)[C@H](O)C3=C(C)[C@@H](OC(=O)[C@H](O)[C@@H](NC(=O)c4ccccc4)c4ccccc4)C[C@@](O)([C@@H](OC(=O)c4ccccc4)C12)C3(C)C (some centres unmarked) | -7.05
54 | Cc1ccc(N2CC(C(=O)Oc3cccc(N4C(=O)CCC4=O)c3)CC2=O)cc1 (centres unmarked) | -9.12
55 | Cc1ccc(-n2nc3ccc(N)cc3n2)cc1C | 11.8
56 | COc1ccc(CNC(=S)Nc2ccccc2-c2ccccc2)cc1 | -5.74
57 | Cc1cccc(CSc2nnc(CCNC(=O)OC(C)(C)C)o2)c1 | -7.22
58 | Cc1onc(-c2ccccc2)c1C(=O)N1CCN(S(=O)(=O)c2ccc(OC(F)(F)F)cc2)CC1 | -20.2
59 | Cc1cc2c3nonc3ccc2n1C | -7.19
60 | COc1ccccc1C1C(C#N)=C(N)Oc2c1c(-c1ccccc1)nn2-c1ccccc1 (centres unmarked) | 0.699
61 | CCN(CC(=O)Nc1ccc(NC(C)=O)cc1)CC(=O)Nc1ccccc1C(=O)c1ccccc1 | -46
62 | CCn1ccc(=O)c2cc3c(cc21)OCO3 | 10.3
63 | COc1ccccc1C(=O)NCCC(=O)NNC(=O)c1ccccc1O | 17.1
64 | O=C(NCc1ccccc1Cl)C1(S(=O)(=O)c2ccc(Cl)cc2)CC1 | -4.86
65 | Cl.O=C(OCC1CCCN2CCCCC12)c1ccc2c(c1)OCO2 (centres unmarked) | -22.8
66 | Cc1sc2nc(SCc3nc4ccccc4[nH]3)n(Cc3ccco3)c(=O)c2c1C | -9.15

Row | Compound | hERG current change (%, negative = inhibition) at 10uM [%]
67 | CCn1c(SCc2ccc(C(=O)Nc3cc(C)cc(C)c3)cc2)nnc1-c1ccncc1 | -59.2
68 | N#Cc1c(NC(=O)CSc2ncnc3sccc23)oc(-c2ccco2)c1-c1ccco1 | -0.309
69 | COc1ccc(OC)c(/C=N/NC(=S)NCCc2ccccc2)c1 | 8.63
70 | CCOC(=O)C1=C(N)OC2=C(C(=O)CCC2)C1c1ccc2c(c1)OCO2 (centres unmarked) | -1.12
71 | O=C(NC1CC1)c1ccc(CN(c2ccccc2)S(=O)(=O)c2ccccc2)cc1 | -4.61
72 | Cc1cccc(-c2nc(CN3CCCC(C(=O)NC4CCCCC4)C3)c(C)o2)c1 (centres unmarked) | -60.4
73 | O=C(Nc1nnc(C2CC2)s1)c1cccc(S(=O)(=O)N2CCc3ccccc32)c1 | 10.9
74 | Nc1nonc1-n1nnc(C(=O)N/N=C/c2cccc(Cl)c2)c1CSc1ccc(Cl)cc1 | 23.9
75 | C/C=C(\C)C(=O)N1CC2(CC(c3cccc(NC(=O)CCCCC)c3)=NO2)C[C@@H]1C(N)=O (some centres unmarked) | -6.29
76 | COc1ccc(CCN2C(=O)CC(NC34CC5CC(CC(C5)C3)C4)C2=O)cc1OC (centres unmarked) | -6.23
77 | Cc1ccc(NC(=O)c2cccnc2)c([N+](=O)[O-])c1 | -0.861
78 | C=CCSc1ncccc1C(=O)NCc1ccccc1 | 3.61
79 | O=C(Cc1n[nH]c(=O)c2ccccc12)NCc1ccccn1 | 1.91
80 | CC1CC(C)CN(C/C=C/c2ccccc2[N+](=O)[O-])C1 (centres unmarked) | -55.9
81 | CC(C)CN(CC(C)C)CC(O)CN(c1ccccc1)S(=O)(=O)c1ccccc1[N+](=O)[O-] (centres unmarked) | -51.5
82 | CCn1cnc2cc(NC(=O)c3ccco3)ccc21 | 14.1
83 | O=C(Cc1ccc(Br)cc1)NC1CCN(Cc2ccccc2)CC1 | -56
84 | COC(=O)C1=C(c2cccc(OCc3ccccc3)c2)C[C@@H]2CC[C@H]1N2C(=O)NCc1ccccc1 | 6.08
85 | O=C(NCC1CCCC(CNC(=O)N2CCc3ccccc32)C1)N1CCc2ccccc21 (centres unmarked) | -1.09
86 | COc1ccc(C2c3cc(OC)c(OC)cc3CCN2C(=O)c2cccc([N+](=O)[O-])c2)cc1OC (centres unmarked) | -22.4
